The source of these data is paper PMC2621013 (Journal of cell science, 2007).

This series deals with the molecule itself.

B1: T6BP (construct not stated; self-association, data not shown) (natural protein)
chain: not shown
As usually defined, the stoichiometry N is a count of units in the complex or per binding partner. As to B1, the “stoichiometry N” value was found to be 2.
